The other results are listed elsewhere or left out. No stated cut-off is given here; in the data, active = 3.2 or more and inactive = the rest. The signal is at background level for most entries.
Each binder was assayed against SHP2 C-SH2 domain E139D (assay: enrichment score (SH2-bound / input frequency) (ratio); bacterial display of known human phosphotyrosine sites (pTyr-Var adds point mutants) read by sequencing; higher = stronger binding; tyrosines were phosphorylated by kinases first). Conditions: peptide library: pTyr-Var.
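Further: displayed peptides selected on beads carrying the immobilized SH2 domain, with library peptides lacking any tyrosine serving as negative controls.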

Binder	enrichment score
SGTFQYIIAKF [FOXL2_Y83_I80T_YF]	inactive: 0.825
QPGTDYKIFRF [FN1_Y1970_L1974R_YF]	inactive: 0.824
VNNLVYENING [FRS2_Y306_K303N]	inactive: 2.24
RPAFTYATLIR [FOXP3_Y342_P339A]	inactive: 1
SGIYQYNIAKF [FOXL2_Y83_I84N]	inactive: 0.941
GTHCHYKAPTV [FZD9_Y569]	active: 3.36
FPIDHYLGKEM [G6PD_Y202_R198P_YF]	inactive: 1.12
QGIPWYHSQSP [FOXF1_Y331_R330W]	inactive: 1.48
YPIDHYLGKEM [G6PD_Y202_R198P]	inactive: 1.14
DAGTDYVGISR [FREM2_Y2061]	inactive: 0.482
AGADGYDYLAP [FOXL2_Y186_G187D]	inactive: 0.634
QGIPRYHSQSP [FOXF1_Y331]	inactive: 0.889
YIPSNYVAEDR [FRK_Y104]	inactive: 0.709
YCIDHYLGKEM [G6PD_Y202_R198C]	inactive: 0.992
YSIDHYLGKEM [G6PD_Y202_R198S]	inactive: 0.893
FTGNTYRVGDT [FN1_Y106_YF]	inactive: 0.797
AGADGYDFLAP [FOXL2_Y186_G187D_YF]	inactive: 0.718
FVPSNYVAEDR [FRK_Y104_I100V_YF]	inactive: 0.994
KPPFSYNALIR [FOXG1_Y186_M191R]	inactive: 1.1

These binders were tested against SHP2 C-SH2 domain wild-type in the same assay as above. Conditions: peptide library: pTyr-Var.

Binder	enrichment score
SGTFQYIIAKF [FOXL2_Y83_I80T_YF]	inactive: 0.902
QPGTDYKIFRF [FN1_Y1970_L1974R_YF]	inactive: 1.03
VNNLVYENING [FRS2_Y306_K303N]	inactive: 2.06
RPAFTYATLIR [FOXP3_Y342_P339A]	inactive: 2.55
SGIYQYNIAKF [FOXL2_Y83_I84N]	inactive: 1
GTHCHYKAPTV [FZD9_Y569]	inactive: 3.14
FPIDHYLGKEM [G6PD_Y202_R198P_YF]	inactive: 0.795
QGIPWYHSQSP [FOXF1_Y331_R330W]	inactive: 1.56
YPIDHYLGKEM [G6PD_Y202_R198P]	inactive: 0.919
DAGTDYVGISR [FREM2_Y2061]	inactive: 0.399
AGADGYDYLAP [FOXL2_Y186_G187D]	inactive: 0.627
QGIPRYHSQSP [FOXF1_Y331]	inactive: 0.668
YIPSNYVAEDR [FRK_Y104]	inactive: 0.586
YCIDHYLGKEM [G6PD_Y202_R198C]	inactive: 1.07
YSIDHYLGKEM [G6PD_Y202_R198S]	inactive: 0.986
FTGNTYRVGDT [FN1_Y106_YF]	inactive: 1.09
AGADGYDFLAP [FOXL2_Y186_G187D_YF]	inactive: 0.742
FVPSNYVAEDR [FRK_Y104_I100V_YF]	inactive: 0.916
KPPFSYNALIR [FOXG1_Y186_M191R]	inactive: 1.03

What follows are binders tested against SHP2 N-SH2 domain L43F in the same assay as above. Conditions: peptide library: pTyr-Var.

Binder	enrichment score
SGTFQYIIAKF [FOXL2_Y83_I80T_YF]	inactive: 1.02
QPGTDYKIFRF [FN1_Y1970_L1974R_YF]	inactive: 0.766
VNNLVYENING [FRS2_Y306_K303N]	inactive: 2.15
RPAFTYATLIR [FOXP3_Y342_P339A]	inactive: 0.822
SGIYQYNIAKF [FOXL2_Y83_I84N]	inactive: 2.01
GTHCHYKAPTV [FZD9_Y569]	active: 3.32
FPIDHYLGKEM [G6PD_Y202_R198P_YF]	inactive: 1.05
QGIPWYHSQSP [FOXF1_Y331_R330W]	inactive: 1.43
YPIDHYLGKEM [G6PD_Y202_R198P]	inactive: 0.838
DAGTDYVGISR [FREM2_Y2061]	inactive: 0.429
AGADGYDYLAP [FOXL2_Y186_G187D]	inactive: 0.577
QGIPRYHSQSP [FOXF1_Y331]	inactive: 0.813
YIPSNYVAEDR [FRK_Y104]	inactive: 0.727
YCIDHYLGKEM [G6PD_Y202_R198C]	inactive: 1
YSIDHYLGKEM [G6PD_Y202_R198S]	inactive: 0.95
FTGNTYRVGDT [FN1_Y106_YF]	inactive: 0.832
AGADGYDFLAP [FOXL2_Y186_G187D_YF]	inactive: 0.631
FVPSNYVAEDR [FRK_Y104_I100V_YF]	inactive: 0.98
KPPFSYNALIR [FOXG1_Y186_M191R]	inactive: 1.09

Each binder was assayed against SHP2 N-SH2 domain T42A in the same assay as above. Conditions: peptide library: pTyr-Var.

Binder	enrichment score
SGTFQYIIAKF [FOXL2_Y83_I80T_YF]	inactive: 0.684
QPGTDYKIFRF [FN1_Y1970_L1974R_YF]	inactive: 0.479
VNNLVYENING [FRS2_Y306_K303N]	inactive: 2.54
RPAFTYATLIR [FOXP3_Y342_P339A]	inactive: 2.37
SGIYQYNIAKF [FOXL2_Y83_I84N]	inactive: 1.42
GTHCHYKAPTV [FZD9_Y569]	inactive: 3.02
FPIDHYLGKEM [G6PD_Y202_R198P_YF]	inactive: 0.869
QGIPWYHSQSP [FOXF1_Y331_R330W]	inactive: 1.3
YPIDHYLGKEM [G6PD_Y202_R198P]	inactive: 0.946
DAGTDYVGISR [FREM2_Y2061]	inactive: 0.362
AGADGYDYLAP [FOXL2_Y186_G187D]	inactive: 0.58
QGIPRYHSQSP [FOXF1_Y331]	inactive: 0.758
YIPSNYVAEDR [FRK_Y104]	inactive: 0.679
YCIDHYLGKEM [G6PD_Y202_R198C]	inactive: 0.818
YSIDHYLGKEM [G6PD_Y202_R198S]	inactive: 1.19
FTGNTYRVGDT [FN1_Y106_YF]	inactive: 0.645
AGADGYDFLAP [FOXL2_Y186_G187D_YF]	inactive: 0.522
FVPSNYVAEDR [FRK_Y104_I100V_YF]	inactive: 0.857
KPPFSYNALIR [FOXG1_Y186_M191R]	inactive: 1.09

What follows are binders tested against SHP2 N-SH2 domain T52S in the same assay as above. Conditions: peptide library: pTyr-Var.

Binder	enrichment score
SGTFQYIIAKF [FOXL2_Y83_I80T_YF]	inactive: 0.852
QPGTDYKIFRF [FN1_Y1970_L1974R_YF]	inactive: 0.79
VNNLVYENING [FRS2_Y306_K303N]	inactive: 2.21
RPAFTYATLIR [FOXP3_Y342_P339A]	inactive: 1.15
SGIYQYNIAKF [FOXL2_Y83_I84N]	inactive: 1.66
GTHCHYKAPTV [FZD9_Y569]	active: 3.26
FPIDHYLGKEM [G6PD_Y202_R198P_YF]	inactive: 0.983
QGIPWYHSQSP [FOXF1_Y331_R330W]	inactive: 1.08
YPIDHYLGKEM [G6PD_Y202_R198P]	inactive: 0.998
DAGTDYVGISR [FREM2_Y2061]	inactive: 0.562
AGADGYDYLAP [FOXL2_Y186_G187D]	inactive: 0.522
QGIPRYHSQSP [FOXF1_Y331]	inactive: 0.73
YIPSNYVAEDR [FRK_Y104]	inactive: 0.906
YCIDHYLGKEM [G6PD_Y202_R198C]	inactive: 1.08
YSIDHYLGKEM [G6PD_Y202_R198S]	inactive: 1.13
FTGNTYRVGDT [FN1_Y106_YF]	inactive: 0.797
AGADGYDFLAP [FOXL2_Y186_G187D_YF]	inactive: 0.644
FVPSNYVAEDR [FRK_Y104_I100V_YF]	inactive: 1.11
KPPFSYNALIR [FOXG1_Y186_M191R]	inactive: 1.24

These binders were tested against SHP2 N-SH2 domain wild-type in the same assay as above. Conditions: peptide library: pTyr-Var.

Binder	enrichment score
SGTFQYIIAKF [FOXL2_Y83_I80T_YF]	inactive: 1.02
QPGTDYKIFRF [FN1_Y1970_L1974R_YF]	inactive: 1.01
VNNLVYENING [FRS2_Y306_K303N]	inactive: 1.57
RPAFTYATLIR [FOXP3_Y342_P339A]	inactive: 0.646
SGIYQYNIAKF [FOXL2_Y83_I84N]	inactive: 0.973
GTHCHYKAPTV [FZD9_Y569]	inactive: 2.67
FPIDHYLGKEM [G6PD_Y202_R198P_YF]	inactive: 0.824
QGIPWYHSQSP [FOXF1_Y331_R330W]	inactive: 1.24
YPIDHYLGKEM [G6PD_Y202_R198P]	inactive: 0.751
DAGTDYVGISR [FREM2_Y2061]	inactive: 0.498
AGADGYDYLAP [FOXL2_Y186_G187D]	inactive: 0.608
QGIPRYHSQSP [FOXF1_Y331]	inactive: 0.536
YIPSNYVAEDR [FRK_Y104]	inactive: 0.884
YCIDHYLGKEM [G6PD_Y202_R198C]	inactive: 0.867
YSIDHYLGKEM [G6PD_Y202_R198S]	inactive: 1.51
FTGNTYRVGDT [FN1_Y106_YF]	inactive: 0.73
AGADGYDFLAP [FOXL2_Y186_G187D_YF]	inactive: 0.787
FVPSNYVAEDR [FRK_Y104_I100V_YF]	inactive: 0.835
KPPFSYNALIR [FOXG1_Y186_M191R]	inactive: 1.33

— the supplement of paper PMC10369915
